From the supplement of paper PMC3334620
The full ranking holds about 33,000 sequences; the median of “E-score (-0.5 to 0.5)” is about -0.041, and the highest 2% start at about 0.37. The list shows a part of the results.

Molecular target: T1, Ecm22 (UniProt Q05958)
T1 sequence: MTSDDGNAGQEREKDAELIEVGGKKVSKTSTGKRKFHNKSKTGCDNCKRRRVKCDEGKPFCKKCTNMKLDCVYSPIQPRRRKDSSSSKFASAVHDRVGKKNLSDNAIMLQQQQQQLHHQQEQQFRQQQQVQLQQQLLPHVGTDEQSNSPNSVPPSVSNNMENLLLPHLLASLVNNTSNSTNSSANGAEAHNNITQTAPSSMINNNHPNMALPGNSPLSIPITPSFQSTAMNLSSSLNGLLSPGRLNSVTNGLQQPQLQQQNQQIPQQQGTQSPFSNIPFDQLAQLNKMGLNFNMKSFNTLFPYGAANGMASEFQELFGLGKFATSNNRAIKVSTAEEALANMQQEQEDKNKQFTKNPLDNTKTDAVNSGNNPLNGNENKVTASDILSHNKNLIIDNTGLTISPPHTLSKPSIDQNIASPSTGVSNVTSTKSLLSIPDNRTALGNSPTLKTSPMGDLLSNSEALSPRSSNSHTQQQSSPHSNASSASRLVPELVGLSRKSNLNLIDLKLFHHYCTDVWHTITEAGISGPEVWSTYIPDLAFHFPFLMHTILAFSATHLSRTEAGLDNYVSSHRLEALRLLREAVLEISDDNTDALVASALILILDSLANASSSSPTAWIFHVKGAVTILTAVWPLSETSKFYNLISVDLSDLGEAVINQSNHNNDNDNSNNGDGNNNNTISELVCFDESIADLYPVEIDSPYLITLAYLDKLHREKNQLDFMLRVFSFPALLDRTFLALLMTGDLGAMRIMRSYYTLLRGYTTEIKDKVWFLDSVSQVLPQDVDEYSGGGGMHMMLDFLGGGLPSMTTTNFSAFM
Experiment: PBM E-score (8-mer binding enrichment) (E-score (-0.5 to 0.5)); higher = stronger / more preferred TF binding; most listed sequences are background and not binding sites
Details: protein concentration: 200 nM; construct: GST-full length
Summary of the method: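 GST-tagged yeast TFs (full-length or DNA-binding domain) were made by PURExpress in vitro transcription/translation and applied at about 100-200 nM to universal all-10-mer Agilent arrays. The arrays were made double-stranded by primer extension, on fresh or once-stripped slides. Bound protein was detected with fluorescent anti-GST, and scans were normalised with masliner. Each ungapped eight-base word, pooled with its reverse complement, received an E-score (modified Wilcoxon-Mann-Whitney statistic) from the Universal PBM Analysis Suite.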

Row | Sequence | PBM E-score
1 | ACGGCAAA | 0.129
2 | AGCCCCCC | -0.0476
3 | GCTTAGGA | -0.0432
4 | ATTATAAG | -0.0121
5 | GAGGGCAC | -0.206
6 | CCATTACA | 0.146
7 | CGGAGCCA | -0.204
8 | CATTTCGA | 0.028
9 | CTGGAATC | -0.256
10 | GAGCGGGA | 0.0208
11 | TCATTGAA | 0.0985
12 | GGGCACAC | -0.239
13 | CACAGGCC | -0.2
14 | CCGGAAGG | -0.19
15 | AAGCCAAA | -0.0424
16 | ACGTTGAG | -0.171
17 | AACTATGC | 0.144
18 | CTTTAACC | 0.03
19 | ATAAACTG | 0.0158
20 | CATAGCCC | -0.286
21 | TAGAATAA | -0.00277
22 | AAATTATA | 0.117
23 | CATCTGGC | -0.0688
24 | CTCAGTAA | -0.0628
25 | CTGGCCGC | -0.366

Row | Sequence | PBM E-score
26 | GAATAAGA | 0.122
27 | CTTGGTGA | -0.144
28 | AATTAAGC | 0.183
29 | CCTGAGTA | -0.185
30 | AAATGCTG | -0.0824
31 | AGCGATGG | 0.103
32 | ATCAGACA | -0.218
33 | AACTTGCG | 0.164
34 | CTAGTTAC | 0.0198
35 | AAGGATTA | -0.224
36 | GTACATTA | 0.225
37 | AGGTTGAC | -0.232
38 | CAGGTGAG | -0.231
39 | GGCAATGA | -0.153
40 | GAGTCGCA | 0.133
41 | AAAGTTTC | -0.0781
42 | CAAGTACA | -0.0498
43 | CACGCTGG | -0.0967
44 | CTGACTTC | -0.111
45 | GGCCCCAC | -0.233
46 | AGCAACCG | -0.0179
47 | CATCAGGG | -0.235
48 | ACCCTCCA | -0.244
49 | GGTGATTA | -0.0496
50 | AACGGGCT | 0.16

Row | Sequence | PBM E-score
51 | CCGATCCA | -0.0928
52 | AATCGGCC | -0.138
53 | AAACCTGT | 0.131
54 | ACATATTC | -0.0732
55 | CAGACGGA | -0.108
56 | ACTAGCAT | -0.156
57 | CGCATACC | 0.16
58 | AGGCGTAA | -0.113
59 | AAGGCATG | -0.12
60 | ACCTGCAT | -0.193
61 | CTAATAAG | 0.00651
62 | AGGCAGTC | -0.106
63 | GGTCCGCA | 0.0486
64 | ATCCTCAT | -0.0712
65 | CCAACGTC | 0.0163
66 | CCTTCTCC | -0.0973
67 | CTCAATTA | -0.0205
68 | AACGAAGC | 0.437
69 | CGACACGA | 0.282
70 | GTAAGGAA | -0.0539
71 | CGAGCGAG | 0.343
72 | ACCCCGTG | -0.0297
73 | CCGCTGGA | -0.133
74 | CGTAATAC | 0.296
75 | ATTATTCG | 0.263

Row | Sequence | PBM E-score
76 | GTAGCATA | 0.131
77 | TTAAAAAA | -0.0298
78 | CATGTGCC | -0.153
79 | CCGTATCC | 0.337
80 | ATCCACGG | 0.0268
81 | GTCCCGTA | 0.273
82 | CACACTAC | -0.0812
83 | AATTTAAC | 0.196
84 | AGTTTGTG | -0.0389
85 | CTCATGAA | 0.0381
86 | ATAAACAA | -0.0236
87 | AGGGATAT | -0.212
88 | CTCCTTCA | -0.106
89 | CAGGGGCA | -0.0769
90 | CCCATGGC | -0.24
91 | GTCAAACA | 0.0372
92 | AATTTGCA | -0.215
93 | GCGTAACA | 0.00254
94 | CATGGTGG | -0.241
95 | CGTATTCC | 0.324
96 | GCAGACCC | -0.226
97 | AATCTTAC | 0.166
98 | AGTCCATA | -0.276
99 | CGGCAGCC | -0.176
100 | ACTCGGCT | 0.112

Row | Sequence | PBM E-score
101 | GATCCGAC | 0.172
102 | CACGAGCC | 0.143
103 | AAGTTTGA | -0.2
104 | AGCTTGCA | -0.176
105 | AGTCTTAC | 0.0552
106 | ACGTCCGA | 0.0712
107 | AAGATGTC | -0.115
108 | AATCGTGT | 0.148
109 | AAGCACAT | -0.0748
110 | CTTTCCAA | -0.1
111 | AGACGTCA | -0.0631
112 | AACTCGGA | 0.0857
113 | ACAATTTA | -0.145
114 | AACGCACG | 0.256
115 | GAATCTGA | -0.0472
116 | TCACACAA | -0.0846
117 | CTCCAGGC | -0.212
118 | CTTGCGGC | -0.0719
119 | GGCAGCAA | -0.13
120 | AATCCCGG | -0.105
121 | GGCCGGCC | -0.148
122 | ACACCCTC | -0.0269
123 | ATGCGACA | 0.256
124 | GCGAACGA | 0.397
125 | CTTCTGCA | -0.113

Row | Sequence | PBM E-score
126 | TAAGGCAA | -0.0878
127 | ATACCTTA | 0.0825
128 | TCAGGCCA | -0.198
129 | AGTGTTAG | 0.00522
130 | AGTCATTG | -0.211
131 | CCACGGCA | -0.0744
132 | GGCTGTCA | -0.219
133 | ACAGGGAG | -0.238
134 | AGTGCAGG | -0.153
135 | CCGAACTC | 0.0559
136 | AGATACCA | -0.0445
137 | AGCGGAAA | -0.0681
138 | ACTCTCAT | 0.00813
139 | CCATGTAA | -0.226
140 | ACCAATTG | -0.151
141 | ATCTGCGG | -0.00985
142 | CTCACAGC | -0.268
143 | CACCGAAA | 0.116
144 | AAATCCTA | -0.0798
145 | ATCCCCAG | -0.209
146 | ACGCCTCC | -0.122
147 | AGAACCGG | -0.102
148 | AGCCGTTG | -0.0268
149 | AGGGGGAG | -0.199
150 | ACTGAAGA | -0.0981

Row | Sequence | PBM E-score
151 | ATCTGAAT | -0.0605
152 | CCGTTGCC | 0.0255
153 | CCCGGCGC | -0.15
154 | AGAGATTA | 0.0172
155 | ACCCGACG | 0.167
156 | CATAGGAG | -0.246
157 | GCGCCTAA | -0.0362
158 | ACTAACCA | -0.0312
159 | CCCGTGGC | -0.202
160 | GCCACCTA | -0.123
161 | AATCCAAA | -0.0246
162 | GTGCAGCA | -0.0544
163 | CATGGGCA | -0.0655
164 | AATTCACG | 0.0776
165 | GCTGTTCA | -0.0782
166 | GAATACAC | 0.0154
167 | ACAGAATA | 0.143
168 | GCAAGTGA | -0.135
169 | TAGGACAA | -0.213
170 | AGGTTACA | -0.149
171 | ATTAGCCA | -0.00456
172 | GTCTATCA | -0.0593
